# Results reported in paper PMC4336329 (PLoS ONE, 2015).
# The whole screen tested about 310,000 compounds, of which about 2,200 (0.71%) showed an effect of 50% or more. Effects have a minus sign here. Some of the results follow.
# Biological target: human ether-à-go-go-related gene (hERG) potassium channel (human, UniProt Q12809)
# Assay: primary screen, population patch clamp on CHO cells stably expressing hERG
# Sequence of human ether-à-go-go-related gene (hERG) potassium channel (Q12809 whole entry, looked up): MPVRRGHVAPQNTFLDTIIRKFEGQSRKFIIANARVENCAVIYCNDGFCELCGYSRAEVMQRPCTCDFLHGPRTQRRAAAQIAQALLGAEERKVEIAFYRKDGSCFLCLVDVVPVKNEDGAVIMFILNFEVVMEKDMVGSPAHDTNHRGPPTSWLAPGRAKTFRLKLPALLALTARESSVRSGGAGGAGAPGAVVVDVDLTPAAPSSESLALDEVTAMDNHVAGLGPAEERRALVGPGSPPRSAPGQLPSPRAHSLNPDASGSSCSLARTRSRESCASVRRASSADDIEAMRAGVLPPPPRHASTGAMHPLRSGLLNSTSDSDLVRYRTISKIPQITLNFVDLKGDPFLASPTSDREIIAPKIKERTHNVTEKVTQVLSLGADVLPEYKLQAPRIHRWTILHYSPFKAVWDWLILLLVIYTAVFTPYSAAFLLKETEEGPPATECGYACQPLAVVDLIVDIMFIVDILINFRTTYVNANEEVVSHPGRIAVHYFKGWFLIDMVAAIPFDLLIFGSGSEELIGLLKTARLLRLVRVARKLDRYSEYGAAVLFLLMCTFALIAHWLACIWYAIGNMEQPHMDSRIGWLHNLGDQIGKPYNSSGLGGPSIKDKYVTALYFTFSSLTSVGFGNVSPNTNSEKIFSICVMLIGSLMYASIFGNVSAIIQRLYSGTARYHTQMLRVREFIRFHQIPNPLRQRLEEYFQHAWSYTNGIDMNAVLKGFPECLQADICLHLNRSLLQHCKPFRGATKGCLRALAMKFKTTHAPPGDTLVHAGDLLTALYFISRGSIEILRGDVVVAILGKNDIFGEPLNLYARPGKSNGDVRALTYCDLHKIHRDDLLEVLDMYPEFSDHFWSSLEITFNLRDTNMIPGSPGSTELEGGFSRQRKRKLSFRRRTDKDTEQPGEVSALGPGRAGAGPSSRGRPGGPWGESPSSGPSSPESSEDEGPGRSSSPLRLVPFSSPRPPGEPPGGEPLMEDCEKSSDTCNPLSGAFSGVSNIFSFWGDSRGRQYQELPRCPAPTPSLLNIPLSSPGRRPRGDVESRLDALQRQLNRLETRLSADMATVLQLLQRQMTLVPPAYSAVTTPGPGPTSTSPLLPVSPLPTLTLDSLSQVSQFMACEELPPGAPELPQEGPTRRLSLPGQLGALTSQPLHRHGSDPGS
row,SMILES,"hERG current change (%, negative = inhibition) at 1uM [%]"
1,C[C@H]([C@H](O)c1ccccc1)N(C)C(=O)CN,15.3
2,CC(=O)N1CCN(c2ccc(NC(=O)C(c3ccccc3)c3ccccc3)cc2)CC1,12.9
3,N#CC(C#N)=NNc1ccc(S(=O)(=O)N2CCCCC2)cc1,-8.42
4,COC(=O)C12CCC(C)(c3nc4ccccc4nc31)C2(C)C (stereo not drawn),9.38
5,COCCC(=O)N1CCCC(C(=O)c2ccccc2SC)C1 (stereo not drawn),13.6
6,COc1ccc(C(=O)Nc2c(-c3cccs3)c(=O)c3ccccc3n2C)cc1,8.93
7,O=C(N/N=C/c1ccc(-c2cccc(C(F)(F)F)c2)o1)c1cccc(F)c1,6.11
8,O=C(c1ccc(S(=O)(=O)Cc2ccccc2Cl)c([N+](=O)[O-])c1)N1CCOCC1,12.6
9,COc1ccc(CN(C(=O)c2cnccn2)C(C(=O)Nc2ccc(F)cc2)c2ccccc2)cc1 (stereo not drawn),-15.7
10,CCn1c(SCC(=O)Nc2nc(C)c(C(=O)OC)s2)nnc1C(C)C,7.05
11,NS(=O)(=O)c1ccc(N2CCN(CCOc3ccc(Cl)cc3)CC2)nc1,-34.5
12,CCC(C)NC(=O)Cn1c(=O)n(-c2ccccc2)c(=O)c2ccc(C(=O)NCc3ccco3)cc21 (stereo not drawn),2.41
13,Cc1cc(C)nc(OC(C(=O)O)C(OCCC(C)C)(c2ccccc2)c2ccccc2)n1 (stereo not drawn),10.8
14,CCSC(=Nc1ccccc1)Nc1ccccc1,11
15,Cc1ccc(NC(=O)[C@@H](CC(C)C)NC(=O)[C@@H]2Cc3ccccc3CN2)cc1,11.4
16,COc1cccc(NC(=O)Nc2cc(Cl)ccc2C)c1,19.7
17,CN1CCN(C2CCN(Cc3ccc(O)c4ncccc34)CC2)CC1,9.94
18,O=C(CSc1ncn[nH]1)Nc1ccc(S(=O)(=O)Nc2ncccn2)cc1,24.3
19,O=C(NC1CCCC1)C(c1cccnc1)N(C(=O)c1csnn1)c1ccccc1 (stereo not drawn),9.37
20,Cc1cc(/C=C(\C#N)C(=O)NCc2cccs2)c(C)n1-c1ccccc1F,4.98
21,Cc1ccc(Nc2ccc(C(N)=O)cc2[N+](=O)[O-])cc1,15.9
22,CCCCCn1c(=O)[nH]c2cc(C(=O)NCCCN(CC)CC)ccc2c1=O,1.39
23,CCc1ccc(C(=O)NNC(=O)C2CSC3(C)CCC(=O)N23)cc1 (stereo not drawn),3.26

row,SMILES,"hERG current change (%, negative = inhibition) at 1uM [%]"
1,CCCCOc1ccc(C(=O)NNC(=O)C2C3CCC(C3)C2C(=O)O)cc1 (stereo not drawn),7.18
2,Cc1ccc(NC(=S)N(CCN2CCOCC2)Cc2cc3cc4c(cc3[nH]c2=O)OCCO4)cc1,2.59
3,COc1ccc(CSc2nncn2C)cc1[N+](=O)[O-],8.66
4,CC1CN(C(=S)SCC(=O)c2ccccc2)CC(C)O1 (stereo not drawn),4.52
5,Cc1ccccc1NC(=O)c1nn(C)c2c1CS(=O)(=O)c1ccccc1-2,10.4
6,COc1ccc(N2CCN(C(=O)c3ccc4c(c3)CCN4S(=O)(=O)c3ccccc3)CC2)cc1,6.88
7,CCn1nc(C(=O)Nc2nc3ccccc3[nH]2)c2ccccc2c1=O,9.33
8,CCN(CC)C1CCN(C(=O)CCn2nnnc2CN2CCOCC2)C1 (stereo not drawn),19.2
9,Cc1cccc2sc(N(CCCN(C)C)C(=O)CCS(=O)(=O)c3ccccc3)nc12,0.941
10,S=C1SCN(CC2CC2)CN1CC1CC1,8.33
11,COc1cc(C)c(S(=O)(=O)N2CCN=C2c2ccccc2)cc1C,4.29
12,O=C(c1ccc(S(=O)(=O)Nc2ccc(F)cc2)cc1)N1CCN(C(=O)c2ccco2)CC1,1.55
13,CC(Oc1ccc(Br)cc1)C(=O)Nc1ccc(N2CCOCC2)cc1N1CCOCC1 (stereo not drawn),-3.69
14,COc1ccccc1-c1nc(C#N)c(N2CCN(c3ccccc3)CC2)o1,-5.28
15,COc1ccc(CC2=CC(=O)c3ccccc3C2=O)cc1,13.1
16,CCOc1ncccc1C(=O)N(C)CC(=O)Nc1ccc(C)cc1,-4.04
17,O=C(Nn1cnc2ccccc2c1=O)c1cccc(Cl)c1,10.2
18,CCN(CC)S(=O)(=O)c1ccc2c(c1)N(CC(=O)NCCCN1CC(C)CC(C)C1)C(=O)CO2 (stereo not drawn),8.87
19,COc1ccc(N2CCN(C(=O)c3cccnc3)CC2)c([N+](=O)[O-])c1,-16.1
20,CSc1ccc(C(=O)C2CCCN(Cc3cccc4nccnc34)C2)cc1 (stereo not drawn),-82
21,COc1cc2c(cc1OC)C(C1(O)CCCCC1)NCC2 (stereo not drawn),15
22,CCOC(=O)c1c(C)c(C(=O)OCC)n(C)c1C,5.67
23,COc1ccc(O)c(-c2cc(-c3ccccc3[N+](=O)[O-])[nH]n2)c1,-1.33

row,SMILES,"hERG current change (%, negative = inhibition) at 1uM [%]"
1,COc1ccccc1C(=O)N1CCN=C1c1ccccc1,0.902
2,COc1cc(Cl)ccc1OCc1cc(C(=O)N2CCCCCC2)no1,13.9
3,Cc1nn(CC(=O)Nc2ccc(Cl)cn2)c(C)c1Br,3.29
4,COc1ccc(C(=O)N/C(=C\c2cn(C)c3ccccc23)C(=O)N2CCN(C)CC2)cc1OC,14.5
5,CCCCn1c(N)c(S(=O)(=O)c2ccc(C)cc2)c2nc3ccccc3nc21,6.52
6,CCOC(=O)CSc1nc(=O)n2cc(C)ccc2n1,5.71
7,c1ccc2c3c(ccc2c1)OCC1CONC31 (stereo not drawn),10.8
8,COc1ccc(C(=O)Nc2nc(-c3ccc(S(=O)(=O)N4CCOCC4)cc3)cs2)cc1,-2.5
9,Cc1ccc2sc(N(CCN(C)C)C(=O)c3ccc(S(=O)(=O)N4CC(C)OC(C)C4)cc3)nc2c1C.Cl (stereo not drawn),3.51
10,COC(=O)c1ccccc1NC(=O)C1CCC(=O)N1S(=O)(=O)c1ccc(C)cc1 (stereo not drawn),0.921
11,COc1ccccc1NC(=O)CSc1nc2ccccc2n1C(C)=O,-6.42
12,O=C(CSc1nc(=O)n(CCN2CCOCC2)c2c1CCCC2)Nc1ccc([N+](=O)[O-])cc1,1.39
13,COc1ccc(OC)c(NC(=O)/C=C/c2ccccc2[N+](=O)[O-])c1,-1.33
14,COc1ccc(N(CC(=O)Nc2cccc(F)c2)S(=O)(=O)c2c(C)[nH]c(=O)[nH]c2=O)cc1,14.9
15,O=C(CCc1nnc(-c2ccc(-c3ccccc3)cc2)o1)NCCc1ccccn1,3.54
16,CCOc1ccc(-c2nc(S(=O)(=O)c3ccccc3)c(NC)o2)cc1,12.6
17,O=C(c1ccc(S(=O)(=O)N2CCCC2)cc1)N1CCCC(C(F)(F)F)C1 (stereo not drawn),4.41
18,Cc1ncsc1CCSc1n[nH]c(=O)n1-c1ccccc1,8.71
19,CCOC(=O)c1c(S(=O)(=O)Nc2ccccn2)c(C)n(C)c1C,6.91
20,CCN(CC)S(=O)(=O)c1ccc(N2CCOCC2)c(NC(=O)COc2ccccc2C)c1,6.38
21,CCOC(=O)C1=C(C)C(c2ccccc2)NC(=S)N1 (stereo not drawn),-1.84
22,C=CCn1c(SCC(=O)C(C)(C)C)nnc1-c1cccs1,-9.56
23,O=C(O)CCCCCCNC(=O)c1cncc(O)c1,15.9

row,SMILES,"hERG current change (%, negative = inhibition) at 1uM [%]"
1,Cc1oc(CSCC2CCCO2)cc1C(=O)O (stereo not drawn),1.96
2,Cc1cccc(NC(=S)NC(=O)CCc2ccccc2)c1,-8.59
3,O=C(CN1CCCC1)NCC(=O)Nc1ccc(F)cc1,11.9
4,O=C(O)C(=O)O.c1cc2c(cc1CN1CCN(C3CCCCCC3)CC1)OCO2,3.18
5,CCN(CCNC(=O)C1CCN(Cc2nc(-c3ccc(Cl)cc3)oc2C)CC1)c1ccccc1,-6.12
6,CCn1c(SCC(=O)OC(C)C)nnc1-c1cccc(Cl)c1,10
7,O=C(N/N=C/c1ccc(Br)s1)c1ccccn1,-1.3
8,Cc1ccccc1CSc1nnc(C)n1N,-5.78
9,CCOCCCNC(=O)Cn1cnc2c(cnn2-c2ccc(OC)cc2)c1=O,4.24
10,O=C(CSc1ncccn1)NC(=O)Nc1ccc2c(c1)OCCO2,5.37
11,CC(C)c1cc(C(N)=O)c(NC(=O)C2CCC2)s1,-5.79
12,CN1CCN(Cc2cccc(Oc3ccccc3)c2)CC1,5.96
13,Cc1ccc(CSCC(=O)N(C)CC(=O)Nc2ccccc2C(F)(F)F)cc1,8.42
14,Cc1ccc(S(=O)(=O)N2CCCC(C(=O)NNCC(=O)Nc3cc(F)ccc3F)C2)cc1 (stereo not drawn),-0.56
15,Cn1nc(NC(=O)CC23CC4CC(CC(C4)C2)C3)c2c(F)cccc21,11.9
16,Cc1cccc(N2CCN(Cc3nc(C4CC4)no3)CC2)n1,12.2
17,CC(=O)N/N=C(\C)CC(=O)Nc1cccc2c1CCCC2,16.1
18,Cc1ccc(C)n1-c1ncn[nH]1,15.4
19,OCCCNc1nnc(-c2ccccc2)c2ccccc12,6.76
20,CC(C)(C)OC(=O)N1CCC(C(=O)NCC2CCCO2)CC1 (stereo not drawn),13.2
21,Cc1ccc(S(=O)(=O)NCCNC(=O)C2CCCNC2=O)cc1 (stereo not drawn),9.69
